# Measurements reported in PubChem BioAssay (NCATS).
# Inconclusive means that the source gave no clear call. Such entries were picked first, then a sample of the others. For some assays here: Where the call is inconclusive, the potency comes from a doubtful curve fit. The source made the active and inactive calls. Calls come from the whole dose curve; as a rule, active = well fitted cell-killing curve with a large enough effect; inconclusive = small, poorly fitted or top-dose-only effect; inactive = flat fitted curve, though single readings scatter.
# Assay: Cell Viability - H-4-II-E (AID 543); note: nearly all actives have a fitted effect of over 35% in size; note: potency is the fitted concentration of half-maximal effect
# Settings: H-4-II-E rat hepatoma viability; series mostly up to 92.2 µM
# Procedure, shortened: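 qHTS, rat hepatoma H-4-II-E, 1500 cells/well; 40 hr compound exposure, 37 °C; CellTiter-Glo ATP luminescence after 20 min RT; AC50 by standard Hill fit.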
# Tags give direction and shape of the fitted curve.
row,SMILES,Potency
1,O=C(O)C(Br)CBr (stereo unspecified),"inconclusive: 39.8 µM [falling, partial curve]"
2,N#CC(Br)Br,"inconclusive: 39.8 µM [falling, partial curve]"
3,O=[N+]([O-])c1ccccc1CCl,"inconclusive: 79.4 µM [falling, single point]"
4,ClC(Cl)(Cl)Cl,inactive
5,Cc1cc(N=Nc2ccccc2C)ccc1N,"inconclusive: 50.1 µM [falling, partial curve]"
6,O=[N+]([O-])c1cc(C(F)(F)F)cc([N+](=O)[O-])c1Cl,"inconclusive: 79.4 µM [falling, single point]"
7,CN(C)c1ccc(N(C)C)cc1,"inconclusive: 63.1 µM [falling, single point]"

# Assay: Cell Viability - Renal Proximal Tubule (AID 545);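 note: 0% = DMSO only and -100% = 100 µM tamoxifen; nearly all actives have a fitted effect of over 40% in size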
# Settings: renal proximal tubule cells viability; activity change, negative = cytotoxicity: at 91.7 µM (top of the series) unless noted
# Procedure, shortened: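 Rat renal proximal tubule primary cells, 1000/well, exposed to compounds for 40 hr at 37 °C in complete medium; cellular ATP read by CellTiter-Glo luminescence. AC50 from concentration-response fitted with standard Hill equation.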
row,SMILES,"activity change, negative = cytotoxicity"
1,Nc1ccc([N+](=O)[O-])cc1N,"inactive: -2.73% [at 91.7 µM, primary cells of rat origin]"
2,Nc1ccccc1C(=O)OCCc1ccccc1,inconclusive: -32.2%
3,Cc1cc(N=Nc2ccccc2C)ccc1N,inconclusive: -42.2%
4,c1ccc(Nc2ccc(Nc3ccccc3)cc2)cc1,"inconclusive: -30.9% [at 91.7 µM, primary cells of rat origin]"
